Measurements taken from PubChem BioAssay AID2451 (National Center for Advancing Translational Sciences (NCATS), 2010).
Where “and” joins values, the source holds several entries; their conditions need not be identical. Identical values can stand only once. The whole screen tested about 290,000 compounds, of which about 2,100 (0.72%) were called active. The inconclusive results got no clear call from the source; some entries with a clear call stand among them for comparison. Calls come from the whole dose curve; as a rule, active = well fitted inhibition curve with a large enough effect; inconclusive = small, poorly fitted or top-dose-only effect, or effect the other way; inactive = flat fitted curve, though single readings scatter. Potencies of inconclusive entries are doubtful fits and often do not repeat.

What follows are molecules tested against Fructose-bisphosphate aldolase (Giardia intestinalis (strain ATCC 50803 / WB clone C6)) (UniProt A8B2U2) (assay: qHTS Assay for Inhibitors of Fructose-1,6-bisphosphate Aldolase from Giardia Lamblia). Conditions: purified Giardia FBPA; activity, negative = inhibition: at 59.6 µM (top of the series) unless noted.
UniProt A8B2U2, sequence (A8B2U2 whole entry, looked up): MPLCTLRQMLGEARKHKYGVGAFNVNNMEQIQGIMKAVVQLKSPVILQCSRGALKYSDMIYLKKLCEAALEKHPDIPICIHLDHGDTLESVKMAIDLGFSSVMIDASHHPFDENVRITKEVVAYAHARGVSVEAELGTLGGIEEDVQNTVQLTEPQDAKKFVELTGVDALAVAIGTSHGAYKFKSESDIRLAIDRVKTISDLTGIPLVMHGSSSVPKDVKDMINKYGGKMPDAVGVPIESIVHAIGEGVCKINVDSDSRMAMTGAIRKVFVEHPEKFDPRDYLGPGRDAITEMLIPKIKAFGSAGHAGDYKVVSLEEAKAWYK
Summary of the method: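 Giardia FBPA (40 nM reagent) was preincubated 10 min at RT with compound (up to 57.5 uM final), then substrate plus GAPDH/TPI/NAD/arsenate coupling system with diaphorase/resazurin was added; resorufin fluorescence (525/598 nm) was read after 20 min.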
% is set by controls: 0 for no effect and ±100 for the full control effect; potency is the fitted concentration of half-maximal effect; tags give direction and shape of the fitted curve.
Note: nearly all actives have a fitted effect of over 55% in size.

| SMILES | Potency | activity, negative = inhibition |
| --- | --- | --- |
| Cn1c(=O)c2[nH]c(Nc3ccccc3)nc2n(C)c1=O | inconclusive: 22.3 µM [inhibitor, partial curve] | – |
| Cc1cc(-n2nc(C)cc2C)n2nc(C)c(-c3ccc(Cl)cc3)c2n1 | – | inactive: 5.06% |
| COc1ccc(NCC(=O)N/N=C/C=C\c2ccccc2)cc1 | inconclusive: 15.8 µM [inhibitor, single point] | – |
| Cc1cnc(CNc2ncnc3ccc(-c4ccccc4CN(C)C)cc23)cn1 | inconclusive: 17.7 µM [inhibitor, partial curve] | – |
| COc1ccc(OC)c(NC(=O)C2C3CCC(C3=C(C)C)C2C(=O)O)c1 (stereo not drawn) | active: 3.55 µM | – |
| CC(=O)N1C(=O)/C(=C2\SC(=S)N(NC(=O)c3ccc(O)cc3)C2=O)c2ccccc21 | inconclusive: 15.8 µM [inhibitor, partial curve] | – |
| Cc1cc2ncn(CCOc3ccccc3C#N)c2cc1C | – | inactive: 1.26% |
| c1ccc(COc2cccc(CN3CCc4ccccc4C3)c2)cc1 | – | inactive: -25.1% |
| O=C(N/N=C/c1ccc(Cl)cc1)C(=O)N1CCCCCC1 | inconclusive: 2.81 µM [inhibitor, partial curve] | – |
| CC1=NN(C(N)=S)C(=O)C1N=Nc1cccc(C(=O)O)c1 (stereo not drawn) | inconclusive: 0.631 µM [inhibitor, full curve] | – |
| CSc1ccc(CN(C)C(=O)c2cc(=O)[nH]c3ccccc23)cc1 | – | inactive: 1.11% |
| CN(C)CCOc1ccc(C(C)(C)c2ccccc2)cc1 | inconclusive: 22.3 µM [inhibitor, partial curve] | – |
| Cc1ccccc1C(=O)OC1CCCN(C)C1 (stereo not drawn) | inconclusive: 31.6 µM [inhibitor, partial curve] | – |
| CC1CC(C)CN(CCOCCSc2ccc(Cl)cc2)C1 (stereo not drawn) | inconclusive: 12.6 µM [inhibitor, partial curve] | – |
| S=c1[nH]c2ccccc2n2c(=S)[nH]nc12 | inconclusive: 17.8 µM [activator, single point] | – |
| Cc1ccc(C)c(-n2c3nc(=O)[nH]c(=O)c-3cc3cc([N+](=O)[O-])ccc32)c1 | inconclusive: 1.77 µM [inhibitor, full curve] | – |
| Nn1c(SCC(=O)Nc2nccs2)nncc1=O | inconclusive: 17.7 µM [inhibitor, single point] | – |
| c1cc(CNCCc2ccc3c(c2)OCO3)ccn1 | inconclusive: 20 µM [inhibitor, partial curve] | – |
| O=C(c1ccc(S(=O)(=O)N2CCC(c3nc4ccccc4[nH]3)CC2)cc1)N1CCOCC1 | inconclusive: 19.9 µM [inhibitor, partial curve] | – |
| CC1(C)C2CCC1(C)C(NCC(O)COc1ccc(C#N)cc1)C2 (stereo not drawn) | inconclusive: 12.6 µM [inhibitor, partial curve] | – |
| O=C(COC(=O)C1CC(=O)N(c2ccc3c(c2)OCCO3)C1)NC1CCCc2ccccc21 (stereo not drawn) | – | inactive: 3.16% |
| CCOc1ccccc1C1C(C#N)=C(N)Oc2cc(C)n(C)c(=O)c21 (stereo not drawn) | inconclusive: 12.6 µM [inhibitor, partial curve] | – |
| CN1CCN(c2ccc([N+](=O)[O-])c(NCC3CCCO3)c2)CC1 (stereo not drawn) | inconclusive: 17.7 µM [inhibitor, single point] | – |
| N#C/C(=C(/O)CCl)c1nc2c(s1)CCc1ccccc1-2 | active: 14.1 µM | – |
| CCC(Sc1nc2ncccc2[nH]1)C(=O)NCCc1ccccc1 (stereo not drawn) | active: 2.24 µM | – |

| SMILES | Potency | activity, negative = inhibition |
| --- | --- | --- |
| S=C1SCN(Cc2ccco2)CN1Cc1ccco1 | inconclusive: 31.5 µM [inhibitor, single point] | – |
| COc1ccccc1CNCCc1ccc(F)cc1 | inconclusive: 10 µM [inhibitor, partial curve] | – |
| COc1ccc(C2=NOC(CN3C(=O)c4ccccc4S3(=O)=O)C2)cc1 (stereo not drawn) | – | inactive: 0.642% |
| N/C(=N\OC(=O)C1CCCCC1)c1ccncc1 | – | inactive: 2.79% |
| O=C(O)c1cccc(Oc2ncnc3sc4c(c23)CCCC4)c1 | inconclusive: 15.8 µM [activator, single point] | – |
| COc1ccc(CNc2nc(-c3ccc(N(C)C)cc3)nc3ccccc23)c(OC)c1 | active: 17.7 µM | – |
| Cc1cc(N2CCOCC2)nc2ccc(NC(=O)CCC(=O)N3CCC(C)CC3)cc12 | inconclusive: 35.4 µM [inhibitor, single point] | – |
| Cc1cc(C)nc(/N=c2/ssnc2Cl)c1 | inconclusive: 15.8 µM [inhibitor, partial curve] | – |
| COc1ccccc1-c1cncnc1NCc1cccs1 | inconclusive: 14.1 µM [activator, partial curve] | – |
| O=C(NC(=S)Nc1c(Cl)ccc2nsnc12)c1ccco1 | inconclusive: 5.61 µM [inhibitor, full curve] | – |
| CC(=O)c1ccc(-n2nnnc2SCC(=O)N2CCc3ccccc3C2)cc1 | inconclusive: 19.9 µM [inhibitor, single point] | – |
| C/C(=N\NC(=O)c1ccc(NS(=O)(=O)c2cccs2)cc1)c1ccccn1 | inconclusive: 3.54 µM [inhibitor, full curve] | – |
| CCOC(=O)Cn1cc(/C=N/NC(=O)c2cc3ccccc3o2)c2ccccc21 | – | inactive: 11.8% |
| CSc1cccc(NC(=S)N2CCC(N(C)C3CCCCC3)CC2)c1 | active: 12.6 µM | – |
| O=C(O)c1ccc2c3c(ncnc13)-c1ccccc1C2=O | inconclusive: 12.6 µM [inhibitor, partial curve] | – |
| Clc1cccc(OCCN2CCOCC2)c1 | inconclusive: 14.1 µM [inhibitor, partial curve] | – |
| O=C(CN1CCCCCC1)N/N=C/c1ccc2ccccc2c1 | inconclusive: 14.1 µM [inhibitor, partial curve] | – |
| O=C(COn1nnc2ccccc21)NCC1CCCCC1 | – | inactive: 2.75% |
| c1cc2c3c(cccc3c1)C(N1CCCCC1)=N2 | inconclusive: 7.92 µM [inhibitor, full curve] | – |
| COC(=O)CSc1nc2ccc(N)cc2s1 | inconclusive: 22.3 µM [inhibitor, partial curve] | – |
| O=[N+]([O-])c1ccc(C2Oc3ccccc3C3CC(c4ccccc4)=NN32)s1 (stereo not drawn) | – | inactive: -26.1% |
| CCCC(C)c1nnc(NC(=O)C(=O)OCC)s1 (stereo not drawn) | inconclusive: 19.9 µM [inhibitor, partial curve] | – |
| CCC(Sc1nc2ncccc2[nH]1)C(=O)NC1CCC(C)CC1 (stereo not drawn) | inconclusive: 1.26 µM [inhibitor, full curve] | – |
| Cc1ccc(S(=O)(=O)N(C(=O)c2ccco2)c2cc3sc(=O)oc3c3ccccc23)cc1 | inconclusive: 22.3 µM [inhibitor, partial curve] | – |
| O=[N+]([O-])c1ccc(O)c(/C=N/NC2=NS(=O)(=O)c3ccccc32)c1 | active: 8.89 µM | – |

| SMILES | Potency | activity, negative = inhibition |
| --- | --- | --- |
| O=C(O)c1ccc2c(c1)C(=O)N(CCC1=CCCCC1)C2=O | inconclusive: 17.7 µM [activator, single point] | – |
| C/C(=N\Nc1cccc2ccccc12)c1c(O)n(Cc2ccccc2)c(=O)[nH]c1=O | inconclusive: 12.6 µM [inhibitor, partial curve] | – |
| Cc1cccc(CN2CCN(c3ccc(Cl)cc3)CC2)c1 | inconclusive: 19.9 µM [inhibitor, partial curve] | – |
| CC(C)Oc1ccc(Nc2ncnc3ccccc23)cc1 | inconclusive: 17.7 µM [inhibitor, single point] | – |
| Nc1nc2n[nH]nc2c(=O)[nH]1 | inconclusive: 7.94 µM [inhibitor, full curve] | – |
| O=C(NC(=S)NCc1ccco1)c1ccc(Br)cc1 | inconclusive: 28.2 µM [inhibitor, partial curve] | – |
| CC(C)Sc1nc(-c2ccccc2)cc(=O)[nH]1 | – | inactive: -18.1% |
| CN1C2CCC1/C(=C/c1cccn1C)C(=O)/C2=C\c1cccn1C | inconclusive: 1.58 µM [inhibitor, partial curve] | – |
| Cc1cc(NC(=O)/C=C/c2ccccc2)no1 | – | inactive: -3.83% |
| CC(C)OC(=O)c1c(N)n(Cc2ccco2)c2nc3ccccc3nc12 | inconclusive: 22.3 µM [inhibitor, single point] | – |
| Cc1cc(O)c(/C=N/Nc2ccc(Cl)cc2)c(=O)o1 | inconclusive: 17.7 µM [inhibitor, single point] | – |
| CC(=O)c1ccc(NC2=C(N3CCOCC3)C(=O)c3ccccc3C2=O)cc1 | inconclusive: 7.92 µM [inhibitor, partial curve] | – |
| COc1ccccc1OCCCc1c(C)n[nH]c1C | – | inactive: -19.3% |
| Cc1c(C(=O)Oc2cccc3cccnc23)oc2ccccc12 | inconclusive: 31.5 µM [inhibitor, single point] | – |
| Cc1ccc(C2(C)NC(=O)N(CC(=O)NCc3cccs3)C2=O)cc1 (stereo not drawn) | – | inactive: 0.553% |
| C=CCN1C=C2C(=O)C(C)(OC(=O)CCC(=O)OC)C(=O)C=C2C=C1C1CC1 (stereo not drawn) | inconclusive: 251 nM [inhibitor, full curve] and inconclusive: 397 nM [inhibitor, partial curve] | – |
| CC(=O)NC1=NN(C(C)=O)C(C)(CS(=O)(=O)c2ccc(Cl)cc2)S1 (stereo not drawn) | – | inactive: 2.03% |
| CC(/C=C/c1ccccc1)=N\NC(N)=S | – | inactive: -7.4% |
| COCCNC(=S)Nc1cccc2cnccc12 | inconclusive: 19.9 µM [inhibitor, partial curve] | – |
| CCOc1cc(/C=C/C(=O)O)ccc1OCc1ccccc1 | inconclusive: 15.8 µM [activator, partial curve] | – |
| Cc1ccc(CN2CCN(C(=O)c3cccc4ccccc34)CC2)cc1 | inconclusive: 12.6 µM [inhibitor, partial curve] | – |
| CN(C)C(=O)c1ccc(-c2cc(C(F)(F)F)nn2C)s1 | – | inactive: -8.16% |
| Cc1c(Cc2ccccc2)c(=O)oc2c(C)c(OCC(=O)N[C@@H](Cc3ccccc3)C(=O)O)ccc12 | – | inactive: 1.23% |
